Test results published in paper PMC9241813, “SGK1, a Serine/Threonine Kinase, Inhibits Prototype Foamy Virus Replication” (Microbiology Spectrum, 2022).
Results are given in words; binding and its absence hold for the method and conditions named. In cells and extracts the contact can be indirect. Some entries that bind do so weakly or less than the wild type. For part of these data: Where a sequence is shown, tags or fusion partners need not be part of it.

By UniProt entry, the sequences of proteins in these tests, tags left out.
UniProt O00141: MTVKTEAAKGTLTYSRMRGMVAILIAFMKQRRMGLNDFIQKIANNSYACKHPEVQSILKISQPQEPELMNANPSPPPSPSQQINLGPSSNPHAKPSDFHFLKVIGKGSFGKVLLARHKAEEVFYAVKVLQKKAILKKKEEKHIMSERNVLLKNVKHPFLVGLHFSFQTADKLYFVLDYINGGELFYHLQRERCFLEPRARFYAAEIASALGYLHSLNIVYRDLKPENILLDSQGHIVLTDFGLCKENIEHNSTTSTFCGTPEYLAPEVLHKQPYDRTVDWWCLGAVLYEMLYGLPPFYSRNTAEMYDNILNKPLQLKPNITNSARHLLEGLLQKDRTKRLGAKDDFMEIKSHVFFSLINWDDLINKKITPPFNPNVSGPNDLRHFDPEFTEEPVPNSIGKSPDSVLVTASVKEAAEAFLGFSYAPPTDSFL

Legend:
[1] = target: Tas deletion mutant (215 to 300 aa), containing the activation domain (prototype foamy virus (PFV)) (UniProt P14353); test: co-IP; HEK293T cells transfected 48 h; lysis in 50 mM Tris, 150 mM NaCl, 2 mM EDTA, 3% glycerol, 1% Triton X-100; antibodies (Flag or HA) 3 h at 4°C, Protein A-agarose, six washes; Western blot
[2] = target: T1, prototype foamy virus Tas protein (Flag-Tas) (prototype foamy virus (PFV)) (UniProt P14353); test: as above
T1 sequence: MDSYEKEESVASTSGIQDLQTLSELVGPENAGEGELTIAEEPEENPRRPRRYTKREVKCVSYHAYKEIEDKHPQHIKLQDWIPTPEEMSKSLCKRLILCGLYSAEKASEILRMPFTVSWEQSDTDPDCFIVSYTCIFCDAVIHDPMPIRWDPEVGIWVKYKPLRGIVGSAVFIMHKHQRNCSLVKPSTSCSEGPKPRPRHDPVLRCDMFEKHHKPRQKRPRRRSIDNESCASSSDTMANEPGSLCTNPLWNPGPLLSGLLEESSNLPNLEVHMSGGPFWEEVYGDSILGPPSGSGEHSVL

[3] = target: Tas deletion mutant (1 to 222 aa), containing the DNA binding domain (prototype foamy virus (PFV)) (UniProt P14353); test: as above
[4] = target: T1, prototype foamy virus Tas protein (Flag-Tas) (prototype foamy virus (PFV)); test: cross-linking; HEK293T cells transfected with Flag-Tas and empty vector or HA-SGK1; lysate supernatant incubated with cross-linking buffer at room temperature for 30 min; Western blot
[5] = target: T1, prototype foamy virus Tas protein (Flag-Tas) (prototype foamy virus (PFV)); test: co-IP; HEK293T cells transfected 48 h; lysis in 50 mM Tris, 150 mM NaCl, 2 mM EDTA, 3% glycerol, 1% Triton X-100; antibodies (Flag or HA) 3 h at 4°C, Protein A-agarose, six washes; Western blot; remark: listed apart in the source
[6] = target: P62 (also known as sequestosome 1) (human (endogenous in HT1080)) (UniProt Q13501); test: co-IP; HT1080 cells infected with PFV stock (MOI = 1.0), 48 h; precipitation with IgG and p62 antibodies; Western blot with Gag, Tas and p62 antibodies

With “human serum/glucocorticoid regulated kinase 1 (HA-SGK1) (from UniProt O00141 1-431) (enzyme)” the binding [1] was “binds”, the binding [2] was “binds” and the binding [3] was “no binding”.

B1: prototype foamy virus Tas protein (Flag-Tas) (natural protein)
chain: T1 sequence
notes: also called PFV Tas; Myc-Tas; source: HEK293T, transfected, in lysate
B1 was tested, and the binding [4] was “binds” and the binding [5] was “binds”.

B2: PFV Tas made in PFV-infected cells (protein, UniProt P14353 1-300)
chain: T1 sequence
B2 was tested, and the binding [6] was “no binding”.
